From the supplement of paper PMC4604168 (melanoma cell lines)
The other results are listed elsewhere or left out. Single values are uncertain, as repeats are few or missing.

System: WM3526
Experiment: cell count relative to DMSO control; melanoma cells; higher = more viable cells
Conditions: library dose: standard library concentration; 72 h
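Note: cells treated in 1,536-well plates, then fixed and DAPI-stained, with nuclei counted from automated high-throughput microscope images.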

SMILES | cell count
C=CCNC1=C2C[C@@H](C)C[C@H](OC)[C@H](O)[C@@H](C)/C=C(\C)[C@H](OC(N)=O)[C@@H](OC)/C=C\C=C(/C)C(=O)NC(=CC1=O)C2=O [Tanespimycin] + COc1ccc2c(c1)CCC1C2CCC2(C)C(NCCCCCCN3C(=O)C=CC3=O)CCC12 [U73122] (first compound 0.01 µM, partner dose 2 µM) | 105%
CNC(=O)c1cc(Oc2ccc(NC(=O)Nc3ccc(Cl)c(C(F)(F)F)c3)cc2)ccn1 [sorafenib] + O=C1NC(=O)/C(=C/c2ccc(-c3ccc(F)cc3O)o2)S1 [AS252424] (first compound 2 µM, partner dose 5 µM) | 94.4%
CN1CCN(c2ccc3nc(-c4c(N)c5c(F)cccc5[nH]c4=O)[nH]c3c2)CC1 [Dovitinib] + Oc1nc(-c2ccc(C(F)(F)F)cc2)nc2c1CSCC2 [XAV939] (first compound 0.5 µM, partner dose 10 µM) | 81.8%
CS(=O)(=O)CCNCc1ccc(-c2ccc3ncnc(Nc4ccc(OCc5cccc(F)c5)c(Cl)c4)c3c2)o1 [lapatinib] + CCCCCCCCCCCC1=C(O)C(=O)C=C(O)C1=O [Embelin] (first compound 4 µM, partner dose 6 µM) | 67.7%
CN1CCN(c2ccc3nc(-c4c(N)c5c(F)cccc5[nH]c4=O)[nH]c3c2)CC1 [Dovitinib] + COc1ccc(-c2ccc3c(N4CCOCC4)nc(N4C[C@@H](C)O[C@@H](C)C4)nc3n2)cc1CO [KU0063794] (first compound 0.5 µM, partner dose 0.1 µM) | 80.1%
C=CCNC1=C2C[C@@H](C)C[C@H](OC)[C@H](O)[C@@H](C)/C=C(\C)[C@H](OC(N)=O)[C@@H](OC)/C=C\C=C(/C)C(=O)NC(=CC1=O)C2=O [Tanespimycin] + COc1ccc(-c2ccc3c(N4CCOCC4)nc(N4C[C@@H](C)O[C@@H](C)C4)nc3n2)cc1CO [KU0063794] (first compound 0.01 µM, partner dose 0.1 µM) | 78.2%
CN1CCN(c2ccc3nc(-c4c(N)c5c(F)cccc5[nH]c4=O)[nH]c3c2)CC1 [Dovitinib] + COc1cc2ncnc(Nc3ccc(Oc4ccccc4)cc3)c2cc1OC [SrcI1] (first compound 0.5 µM, partner dose 10 µM) | 59.5%
C=CCNC1=C2C[C@@H](C)C[C@H](OC)[C@H](O)[C@@H](C)/C=C(\C)[C@H](OC(N)=O)[C@@H](OC)/C=C\C=C(/C)C(=O)NC(=CC1=O)C2=O [Tanespimycin] + O=c1cc(-c2cccc3c2Sc2ccccc2S3)oc(N2CCOCC2)c1 [KU55933] (first compound 0.01 µM, partner dose 5 µM) | 67.3%
C=CCNC1=C2C[C@@H](C)C[C@H](OC)[C@H](O)[C@@H](C)/C=C(\C)[C@H](OC(N)=O)[C@@H](OC)/C=C\C=C(/C)C(=O)NC(=CC1=O)C2=O [Tanespimycin] + COc1ccc(COc2ccc(Cc3cnc(N)nc3N)cc2OC)cc1 [GW2580] (first compound 0.01 µM, partner dose 5 µM) | 79.5%
CNC(=O)c1cc(Oc2ccc(NC(=O)Nc3ccc(Cl)c(C(F)(F)F)c3)cc2)ccn1 [sorafenib] + N#Cc1c(O)c2c(-c3ccc(-c4ccccc4O)cc3)csc2[nH]c1=O [A769662] (first compound 2 µM, partner dose 10 µM) | 81.9%
CN1CCN(c2ccc3nc(-c4c(N)c5c(F)cccc5[nH]c4=O)[nH]c3c2)CC1 [Dovitinib] + O=C1NC(=O)/C(=C/c2ccc(-c3ccc(F)cc3O)o2)S1 [AS252424] (first compound 0.5 µM, partner dose 5 µM) | 64.1%
CNC(=O)c1cc(Oc2ccc(NC(=O)Nc3ccc(Cl)c(C(F)(F)F)c3)cc2)ccn1 [sorafenib] + O=C(O)C(=O)Nc1sc2c(c1C(=O)O)CCNC2 [TCS401] (first compound 2 µM, partner dose 8.33333 µM) | 73.4%
C[C@@H](Oc1cc(-c2cnn(C3CCNCC3)c2)cnc1N)c1c(Cl)ccc(F)c1Cl [Crizotinib] + COc1cc2ncnc(Nc3ccc(Oc4ccccc4)cc3)c2cc1OC [SrcI1] (first compound 1 µM, partner dose 10 µM) | 51.4%
